In the supplement of paper PMC4604168 (melanoma cell lines) one finds cell count data, which are given here for seven compounds.

The list shows a part of the results. Many values rest on one well or one pass, so single values are uncertain.

Assay in all cases: cell count relative to DMSO control; melanoma cells; higher = more viable cells
What all share (details): library dose: standard library concentration; 72 h

In experiment [1] the test system is G361.
Experiment [2] concerns IPC-298.
Experiment [3] deals with IST-MEL1.
Experiment [4] concerns LB2518-MEL.
The subject of experiment [5] is LOXIMVI.
Experiment [6] has as its system MEL-HO.
Experiment [7] deals with MZ2-MEL.
Experiment [8] deals with MeWo.
Experiment [9] has as its system RPMI7951.
In experiment [10] the test system is RVH-421.
Experiment [11] relates to SkMel28.
For experiment [12], the system named is SkMel2.
Experiment [13] relates to SkMel30.
Experiment [14] relates to SkMel5.
Experiment [15] concerns UACC257.
Experiment [16] deals with UACC62.
Experiment [17] concerns WM115.
Experiment [18] has as its system WM1716.
The subject of experiment [19] is WM3526.
Experiment [20] concerns WM1745.
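Further: cells treated in 1,536-well plates, then fixed and DAPI-stained, with nuclei counted from automated high-throughput microscope images.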

Consider `CS(=O)(=O)CCNCc1ccc(-c2ccc3ncnc(Nc4ccc(OCc5cccc(F)c5)c(Cl)c4)c3c2)o1` [lapatinib] + Oc1nc(-c2ccc(C(F)(F)F)cc2)nc2c1CSCC2 [XAV939] (first compound 4 µM, partner dose 10 µM), for which the cell count in experiment [1] was found to be 62.9%; in experiment [2] it was 83.1%; in experiment [3] it was 90.9%; in experiment [4], 98.5%; in experiment [5] it was 71.4%; in [6] it was 75.6%. Moreover, the cell count in experiment [7] is 58%; in experiment [8], 89.2%; in [9] it was 74.4%; in experiment [10] it was 90.5%; in experiment [11], 95.8%; in experiment [12] it was 98.1%. Further, the cell count in experiment [13] turned out to be 82.4%; in [14] it was 54.1%; in experiment [15], 82.3%; in experiment [16], 70.3%; in experiment [17], 81.4%; in [18], 74.6%. For the same compound, in experiment [19], the cell count came to 98.8%.
Turning to `C=CCNC1=C2C[C@@H](C)C[C@H](OC)[C@H](O)[C@@H](C)/C=C(\C)[C@H](OC(N)=O)[C@@H](OC)/C=C\C=C(/C)C(=O)NC(=CC1=O)C2=O` [Tanespimycin] + CN(NC(=O)CC(=O)NN(C)C(=S)c1ccccc1)C(=S)c1ccccc1 [STA4783] (first compound 0.01 µM, partner dose 0.03 µM), the cell count in [1] came to 42.5%; in experiment [2] it was 68.4%; in [3], 7.04%; in [4], 12.6%; in experiment [5], 71.5%; in [6], 80%. Moreover, the cell count came out at 119% in experiment [7]; 12.2% in [8]; 25.7% in experiment [9]; 12.3% in experiment [10]; 25.8% in experiment [11]; 46.3% in experiment [12]. Moreover, the cell count in experiment [13] turned out to be 100%; in experiment [14], 51.8%; in experiment [15] it was 82.9%; in experiment [16] it was 42.6%; in experiment [17] it was 12.4%; in experiment [18], 62.4%. Also, the results for the cell count in experiment [20] and in experiment [19] were 39.7% and 78.5%, respectively.
For `CN1CCN(c2ccc3nc(-c4c(N)c5c(F)cccc5[nH]c4=O)[nH]c3c2)CC1` [Dovitinib] + O=C(CCCCCCC(=O)Nc1ccccc1)NO [vorinostat] (first compound 0.5 µM, partner dose 0.4 µM), the cell count in experiment [1] turned out to be 40.5%; in experiment [2], 72.7%; in experiment [3], 67.4%; in [4], 45.4%; in experiment [5] it was 53.5%; in [6], 68.8%. Also, the cell count in [7] came out at 48.2%; in [8], 51.9%; in experiment [9], 65.5%; in experiment [10], 74.3%; in [11], 59%; in [12], 53.6%. Besides, the cell count was 88.4% in [13]; 64.1% in experiment [14]; 56.7% in experiment [15]; 73.5% in [16]; 56.2% in [17]; 79.3% in experiment [18]. The cell count came out at 53.3% in [20] and 64.5% in experiment [19].
In the case of `CNC(=O)c1cc(Oc2ccc(NC(=O)Nc3ccc(Cl)c(C(F)(F)F)c3)cc2)ccn1` [sorafenib] + CN(NC(=O)CC(=O)NN(C)C(=S)c1ccccc1)C(=S)c1ccccc1 [STA4783] (first compound 2 µM, partner dose 0.03 µM), the cell count in experiment [1] was 35.9%; in [2], 82.5%; in experiment [3], 18%; in [4] it was 21.4%; in experiment [5], 99%; in [6], 75.4%. The cell count in experiment [7] was determined as 119%; in [8] it was 10.7%; in [9], 66.5%; in experiment [10] it was 70.5%; in experiment [11], 29.5%; in [12], 29.5%. Moreover, the cell count was determined as 61.8% in experiment [13]; 40% in [14]; 74.6% in [15]; 31.6% in experiment [16]; 13.9% in experiment [17]; 47.7% in experiment [18]. Moreover, the cell count was determined as 22.6% in [20] and 65.8% in experiment [19].
With `CN1CCN(c2ccc3nc(-c4c(N)c5c(F)cccc5[nH]c4=O)[nH]c3c2)CC1` [Dovitinib] + CN(C)S(=O)(=O)c1ccc2c(c1)/C(=C/c1cc3c([nH]1)CCCC3)C(=O)N2 [SU6656] (first compound 0.5 µM, partner dose 2 µM), the cell count amounted to 41% in [1]; 54.8% in [2]; 58.5% in experiment [3]; 47.4% in experiment [4]; 70.5% in experiment [5]; 62.2% in experiment [6]. Moreover, the cell count is 53.4% in [7]; 37% in experiment [8]; 65.1% in experiment [9]; 79.5% in experiment [10]; 38.1% in experiment [11]; 51.2% in [12]. Further, the cell count in [13] turned out to be 71.5%; in [14], 51.3%; in experiment [15] it was 67.2%; in experiment [16], 68.8%; in experiment [17], 39%; in [18], 61.1%. For the same compound, the values for the cell count in experiment [20] and in experiment [19] were 56.4% and 50.1%, respectively.
As for `C[C@@H](Oc1cc(-c2cnn(C3CCNCC3)c2)cnc1N)c1c(Cl)ccc(F)c1Cl` [Crizotinib] + Cn1nnc2c(C(N)=O)ncn2c1=O [temozolomide] (first compound 1 µM, partner dose 10 µM), the cell count in experiment [1] turned out to be 73.2%; in experiment [2] it was 96.1%; in experiment [3] it was 80.2%; in experiment [4] it was 75.1%; in experiment [5], 120%; in experiment [6], 80.9%. Moreover, the cell count in experiment [7] worked out at 82.1%; in experiment [8], 85.8%; in experiment [9], 77.5%; in [10], 87.2%; in [11], 42.8%; in [12], 79.6%. For the same compound, the cell count in [13] was found to be 75%; in [14], 88.5%; in experiment [15], 98%; in [16], 51.3%; in experiment [17], 66.2%; in [18] it was 52%. For the same compound, the cell count was 58.8% in [20] and 75% in [19].
With `CN1CCN(c2ccc3nc(-c4c(N)c5c(F)cccc5[nH]c4=O)[nH]c3c2)CC1` [Dovitinib] + Cc1ccc(NC(=O)c2cccc(N(C)C)c2)cc1NC(=O)c1ccc(O)cc1 [ZM336372] (first compound 0.5 µM, partner dose 10 µM), the cell count in experiment [1] amounted to 34.4%; in [2] it was 53.1%; in [3], 63.2%; in experiment [4] it was 35.5%; in [5], 68.2%; in [6], 68.3%. The cell count is 38.5% in experiment [7]; 38.7% in experiment [8]; 69.5% in [9]; 82.9% in [10]; 36.1% in experiment [11]; 36.6% in experiment [12]. The cell count in experiment [13] amounted to 70.1%; in experiment [14] it was 49.5%; in experiment [15], 66.3%; in [16], 62%; in [17] it was 41.6%; in [18], 56.1%. Besides, the cell count came out at 56.2% in [20] and 54.7% in [19].
